Read-outs that look alike come from different tables or passages of the source.
Tests used:
[1] = system: invasive GAS isolates; type: cell-based, S. pyogenes
[2] = system: Enterococcus spp. (ESP); type: cell-based
[3] = system: Viridans group streptococci (VGS); type: cell-based; settings: Penicillin-R (28)
[4] = system: Enterobacteriaceae (ENT); type: cell-based

## CC1(C)S[C@@H]2[C@H](NC(=O)Cc3ccccc3)C(=O)N2[C@H]1C(=O)O [penicillin]
[1]
  susceptibility of all isolates: fully susceptible

## CN(C)c1cc(NC(=O)CNC(C)(C)C)c(O)c2c1C[C@H]1C[C@H]3[C@H](N(C)C)C(O)=C(C(N)=O)C(=O)[C@@]3(O)C(O)=C1C2=O [tigecycline]
[2]; Van A (520)
  % inhibited at ≤ 1 mg/L: 100%
[2]; Van B (95)
  % inhibited at ≤ 1 mg/L: 100%
[3]
  % inhibited at ≤ 1 mg/L: 100%
[4]
  % inhibited at ≤ 1 mg/L: 82%

— publication PMC7129916 (Clinical Microbiology and Infection, 2015)
